From PubChem BioAssay (NCI)
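Interpolation was linear, between the two tested concentrations surrounding the appropriate level; five concentrations were tested over 48 hours in 96-well plates. The concentration for 50% growth inhibition is given as GI50.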 Certain results were filed several times, with different values. The other results are left out here. An entry can have further records. For some of these results: A record mostly stands for its own series of concentrations, not given here; some values may only mark the edge of a range. What stands in brackets tells the records apart. Letters hold for one entry only. For some of these results: The values listed for one entry are repeated measurements in other runs, samples, wells, individuals or studies.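 The concentration for full growth arrest is given as TGI.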

Assays:
Assay in all cases: NCI tumour cell line growth inhibition, 48 h
A498 renal = tested on: A498 renal
ACHN renal = tested on: ACHN renal
CAKI-1 renal = tested on: CAKI-1 renal
CCRF-CEM leukemia = tested on: CCRF-CEM leukemia
COLO 205 colon = tested on: COLO 205 colon
DMS 273 small cell lung = tested on: DMS 273 small cell lung
EKVX NSCLC = tested on: EKVX NSCLC
HCC-2998 colon = tested on: HCC-2998 colon
HCT-116 colon = tested on: HCT-116 colon
HL-60(TB) leukemia = tested on: HL-60(TB) leukemia
HOP-18 NSCLC = tested on: HOP-18 NSCLC
HOP-62 NSCLC = tested on: HOP-62 NSCLC
HT29 colon = tested on: HT29 colon
IGROV1 ovarian = tested on: IGROV1 ovarian
K-562 leukemia = tested on: K-562 leukemia
KM12 colon = tested on: KM12 colon
KM20L2 colon = tested on: KM20L2 colon
LOX IMVI melanoma = tested on: LOX IMVI melanoma
M14 melanoma = tested on: M14 melanoma
MALME-3M melanoma = tested on: MALME-3M melanoma
MOLT-4 leukemia = tested on: MOLT-4 leukemia
NCI-H226 lung = tested on: NCI-H226 lung
NCI-H23 lung = tested on: NCI-H23 lung
NCI-H460 lung = tested on: NCI-H460 lung
NCI-H522 lung = tested on: NCI-H522 lung
OVCAR-3 ovarian = tested on: OVCAR-3 ovarian
OVCAR-4 ovarian = tested on: OVCAR-4 ovarian
OVCAR-5 ovarian = tested on: OVCAR-5 ovarian
OVCAR-8 ovarian = tested on: OVCAR-8 ovarian
RPMI-8226 leukemia = tested on: RPMI-8226 leukemia
RXF 393 renal = tested on: RXF 393 renal
SF-268 CNS = tested on: SF-268 CNS
SF-295 CNS = tested on: SF-295 CNS
SF-539 CNS = tested on: SF-539 CNS
SK-MEL-28 melanoma = tested on: SK-MEL-28 melanoma
SK-MEL-5 melanoma = tested on: SK-MEL-5 melanoma
SK-OV-3 ovarian = tested on: SK-OV-3 ovarian
SN12C renal = tested on: SN12C renal
SNB-78 CNS = tested on: SNB-78 CNS
SR leukemia = tested on: SR leukemia
SW-620 colon = tested on: SW-620 colon
TK-10 renal = tested on: TK-10 renal
U251 CNS = tested on: U251 CNS
UACC-62 melanoma = tested on: UACC-62 melanoma
XF 498 CNS = tested on: XF 498 CNS

COC(C(=O)C(O)C(C)O)C1Cc2cc3cc(OC4CC(OC(C)=O)C(OC5CC(O)C(OC)C(C)O5)C(C)O4)cc(O)c3c(O)c2C(=O)C1OC1CC(OC2CC(OC3CC(C)(O)C(OC(=O)C(C)C)C(C)O3)C(O)C(C)O2)C(O)C(C)O1 (stereo not given)
TGI (A498 renal): 358 nM, 34.5 nM [sample A] and 68.3 nM, 53.6 nM [sample B]
GI50 (ACHN renal): 333 nM [sample A, mean of 6 tests] and 25.1 nM [sample B, 1 test]
GI50 (CAKI-1 renal): 12.4 nM [sample A, mean of 4 tests] and 335 nM [sample A, mean of 5 tests] and 35.9 nM [sample B, mean of 2 tests]
TGI (CAKI-1 renal): 76.2 nM [mean of 4 tests] and 890 nM [mean of 5 tests]
GI50 (CCRF-CEM leukemia): 16.2 nM [sample A, mean of 3 tests] and 35.1 nM [sample A, mean of 5 tests] and 0.86 nM [sample B, 1 test]
TGI (CCRF-CEM leukemia): 261 nM [sample A, mean of 3 tests] and 230 nM [sample A, mean of 5 tests] and 14.6 nM [sample B, 1 test] and 264 nM [sample B, mean of 4 tests]
GI50 (COLO 205 colon): 10 nM [sample A, mean of 3 tests] and 23.3 nM [sample A, mean of 4 tests] and 1.12 nM [sample B, 1 test]
TGI (COLO 205 colon): 16.6 nM [sample A, mean of 3 tests] and 61.2 nM [sample A, mean of 4 tests] and 3.1 nM [sample B, 1 test] and 14.9 nM [sample B, mean of 3 tests]
GI50 (DMS 273 small cell lung): 7.5 nM [sample A, mean of 2 tests] and 0.713 nM [sample B, 1 test]
TGI (DMS 273 small cell lung): 101 nM, 8.36 nM [sample A] and 4.03 nM, 23.6 nM [sample B]
TGI (EKVX NSCLC): 305 nM, 100 nM [sample A] and < 24.7 nM [sample B]
GI50 (HCC-2998 colon): 10.2 nM [sample A, mean of 2 tests] and 52 nM [sample A, mean of 4 tests] and 11.7 nM [sample B, 1 test] and 13.8 nM [sample B, mean of 2 tests]
TGI (HCC-2998 colon): 26.6 nM [sample A, mean of 2 tests] and 178 nM [sample A, mean of 4 tests] and 33 nM [sample B, 1 test] and 41.9 nM [sample B, mean of 2 tests]
GI50 (HCT-116 colon): 13.6 nM [sample A, mean of 2 tests] and 0.609 nM, 1.44 nM [sample B, 1 test]
TGI (HCT-116 colon): 482 nM, 75 µM [sample A] and > 48 µM [sample B]
GI50 (HL-60(TB) leukemia): 11.1 nM [sample A, mean of 3 tests] and 45.9 nM [sample A, mean of 6 tests] and 2.35 nM [sample B, 1 test]
TGI (HL-60(TB) leukemia): 110 nM [sample A, mean of 3 tests] and 159 nM [sample A, mean of 6 tests] and 15.7 nM [sample B, 1 test] and 14.6 nM [sample B, mean of 4 tests]
GI50 (HOP-18 NSCLC): 14.1 nM [sample A, mean of 2 tests] and 0.599 nM [sample B, 1 test]
TGI (HOP-18 NSCLC): 94 nM [sample A, mean of 2 tests] and 4.43 nM [sample B, 1 test]
TGI (HOP-62 NSCLC): 19.2 nM [sample A, mean of 4 tests] and 409 nM [sample A, mean of 5 tests] and 45.7 nM [sample B, 1 test]
GI50 (HT29 colon): 11.9 nM [sample A, mean of 3 tests] and 37.1 nM [sample A, mean of 6 tests] and 2.14 nM [sample B, 1 test] and < 18.2 nM [sample B, mean of 4 tests]
GI50 (IGROV1 ovarian): 13.9 nM [sample A, mean of 2 tests] and 47.4 nM [sample A, mean of 5 tests] and 2.74 nM [sample B, 1 test]
TGI (IGROV1 ovarian): 500 nM [sample A, mean of 2 tests] and 933 nM [sample A, mean of 5 tests] and 39.8 nM [sample B, 1 test] and > 5.3 µM [sample B, mean of 3 tests]
GI50 (K-562 leukemia): 7.5 nM [sample A, mean of 3 tests] and 45.9 nM [sample A, mean of 6 tests] and 2.49 nM [sample B, 1 test] and < 10.4 nM [sample B, mean of 3 tests]
TGI (K-562 leukemia): 1.74 µM [sample A, mean of 3 tests] and 608 nM [sample A, mean of 6 tests] and 48.2 nM [sample B, 1 test] and 1.41 µM [sample B, mean of 3 tests]
GI50 (KM12 colon): 10.1 nM [sample A, mean of 4 tests] and 24.5 nM [sample A, mean of 5 tests] and 2.21 nM [sample B, 1 test]
TGI (KM12 colon): 14.1 nM [sample A, mean of 4 tests] and 371 nM [sample A, mean of 5 tests] and < 216 nM [sample B, mean of 3 tests]
GI50 (KM20L2 colon): 0.75 nM [sample A, 1 test] and 40.1 nM [sample A, mean of 3 tests] and 45 nM [sample A, mean of 5 tests] and 16.1 nM [sample B, 1 test] and 17.1 nM [sample B, mean of 5 tests]
TGI (KM20L2 colon): 331 nM [sample A, mean of 3 tests] and 1.3 µM [sample A, mean of 5 tests] and 110 nM [sample B, 1 test] and 728 nM [sample B, mean of 5 tests]
GI50 (LOX IMVI melanoma): 0.261 nM [1 test] and 34 nM, 58.5 nM [mean of 2 tests]
TGI (LOX IMVI melanoma): 134 nM, 476 nM [sample A, mean of 2 tests] and > 41.7 µM [sample B, mean of 2 tests]
GI50 (M14 melanoma): 107 nM [sample A, mean of 6 tests] and 7.97 nM [sample B, 1 test]
GI50 (MALME-3M melanoma): 9.13 nM [sample A, mean of 4 tests] and 0.2 nM, 1.78 nM [sample B, 1 test]
TGI (MALME-3M melanoma): 66.3 nM, 11.5 nM [sample A] and 6.56 nM, < 63.1 nM [sample B]
GI50 (MOLT-4 leukemia): 36.7 nM [sample A, mean of 6 tests] and 2.49 nM [sample B, 1 test]
GI50 (NCI-H226 lung): 39 nM [sample A, mean of 5 tests] and 0.0877 nM, 14.8 nM [sample B, 1 test]
GI50 (NCI-H23 lung): 11.4 nM [sample A, mean of 3 tests] and 0.908 nM [sample B, 1 test]
TGI (NCI-H23 lung): 40.2 nM, 392 nM [sample A] and 3.51 nM, 178 nM [sample B]
TGI (NCI-H460 lung): 488 nM, 218 nM [sample A] and 116 nM, 834 nM [sample B]
TGI (NCI-H522 lung): 41.2 nM, 84.7 nM [sample A] and 0.937 nM, 67.1 nM [sample B]
GI50 (OVCAR-3 ovarian): 9.86 nM [sample A, mean of 4 tests] and 29.2 nM [sample A, mean of 6 tests] and 1.12 nM [sample B, 1 test]
TGI (OVCAR-3 ovarian): 27.3 nM [sample A, mean of 4 tests] and 278 nM [sample A, mean of 6 tests] and 4.49 nM [sample B, 1 test] and 774 nM [sample B, mean of 4 tests]
GI50 (OVCAR-4 ovarian): 10.9 nM [sample A, mean of 3 tests] and 32.8 nM [sample A, mean of 5 tests] and 2.05 nM [sample B, 1 test]
TGI (OVCAR-4 ovarian): 177 nM [sample A, mean of 3 tests] and 171 nM [sample A, mean of 5 tests] and 9.36 nM [sample B, 1 test]
GI50 (OVCAR-5 ovarian): 67 nM [sample A, mean of 4 tests] and 32.7 nM [sample A, mean of 5 tests] and 2.62 nM [sample B, 1 test] and < 215 nM [sample B, mean of 3 tests]
TGI (OVCAR-5 ovarian): 146 nM [sample A, mean of 4 tests] and 161 nM [sample A, mean of 5 tests] and 28.7 nM [sample B, 1 test] and 379 nM [sample B, mean of 3 tests]
GI50 (OVCAR-8 ovarian): 7.5 nM [sample A, mean of 3 tests] and 59.9 nM [sample A, mean of 5 tests] and 6.03 nM [sample B, 1 test] and < 12.3 nM [sample B, mean of 5 tests]
TGI (OVCAR-8 ovarian): 28.6 nM [sample A, mean of 3 tests] and 744 nM [sample A, mean of 5 tests] and 534 nM [sample B, mean of 5 tests]
GI50 (RPMI-8226 leukemia): 40.3 nM [sample A, mean of 5 tests] and 0.613 nM [sample B, 1 test]
GI50 (RXF 393 renal): 10.1 nM [sample A, mean of 3 tests] and 40.8 nM [sample A, mean of 5 tests] and 13.5 nM [sample B, 1 test] and < 11.7 nM [sample B, mean of 3 tests]
TGI (RXF 393 renal): 13.8 nM [sample A, mean of 3 tests] and 118 nM [sample A, mean of 5 tests] and 29.6 nM [sample B, 1 test] and 18.8 nM [sample B, mean of 3 tests]
GI50 (SF-268 CNS): 11.1 nM [sample A, mean of 3 tests] and 25.4 nM [sample A, mean of 5 tests] and 0.346 nM, 0.54 nM [sample B, 1 test]
TGI (SF-268 CNS): 334 nM [sample A, mean of 3 tests] and 395 nM [sample A, mean of 5 tests] and 33 nM [sample B, 1 test] and 1.7 µM [sample B, mean of 3 tests]
GI50 (SF-295 CNS): 12.7 nM [sample A, mean of 4 tests] and 126 nM [sample A, mean of 5 tests] and 38.6 nM [sample B, 1 test] and 19.3 nM [sample B, mean of 4 tests]
TGI (SF-295 CNS): 28.8 nM [sample A, mean of 4 tests] and 909 nM [sample A, mean of 5 tests] and 343 nM [sample B, mean of 4 tests]
TGI (SF-539 CNS): 43.1 nM [sample A] and 2.65 nM [sample B]
TGI (SK-MEL-28 melanoma): 52.9 nM, 11.5 nM [sample A] and 4.17 nM, 14.7 nM [sample B]
TGI (SK-MEL-5 melanoma): 67.1 nM, 11.2 nM [sample A] and 4.79 nM, 18 nM [sample B]
TGI (SK-OV-3 ovarian): 282 nM [sample A] and 12.6 µM [sample B]
GI50 (SN12C renal): 11.3 nM [sample A, mean of 3 tests] and 34.9 nM [sample A, mean of 5 tests] and 1.99 nM [sample B, 1 test]
TGI (SN12C renal): 984 nM [sample A, mean of 3 tests] and 502 nM [sample A, mean of 5 tests] and 44.7 nM [sample B, 1 test] and 3.71 µM [sample B, mean of 3 tests]
GI50 (SNB-78 CNS): 10.1 nM [sample A, mean of 4 tests] and 0.661 nM [sample B, 1 test]
TGI (SNB-78 CNS): 482 nM, 16.1 µM [sample A] and 8.54 nM, 6.23 µM [sample B]
GI50 (SR leukemia): 42 nM [sample A, mean of 4 tests] and 0.449 nM [sample B, 1 test]
GI50 (SW-620 colon): 49.1 nM, 18.1 nM [sample A, mean of 5 tests] and 2.01 nM [sample B, 1 test]
GI50 (TK-10 renal): 334 nM [sample A, mean of 5 tests] and 25.1 nM [sample B, 1 test]
GI50 (U251 CNS): 19.2 nM, 63.9 nM [sample A, mean of 4 tests] and 0.37 nM [sample B, 1 test]
TGI (U251 CNS): 567 nM, 1.8 µM [sample A, mean of 4 tests] and 83.3 nM [sample B, 1 test] and 13.7 µM [sample B, mean of 4 tests]
TGI (UACC-62 melanoma): 39 nM, 12.1 nM [sample A] and 3.64 nM [sample B]
TGI (XF 498 CNS): 18.7 nM, 10.8 nM [sample A] and 5.35 nM, < 22.8 nM [sample B]
